± gives the standard deviation. The list shows a part of the results, in another mix than the full data.
test system: MIWI (PIWIL1) piRISC loaded with L1MC piRNA (30 nt); assay: pre-steady-state target cleavage rate (min^-1); MIWI and MILI are mouse PIWI proteins and EfPiwi is from a freshwater sponge; tags in brackets are library labels; higher = faster piRNA-guided slicing of the target; details: guide: L1MC piRNA 5'p-UAACUAAAUACUAUGCAAGCUGUAGGUCCU; auxiliary factor: 500 nM mouse GTSF1
Protocol: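 Cleave-'n-Seq: a library of target RNAs (target site embedded in constant flanks, ACAGCATTCCGCGTTAGTGATATCCG... 5' flank; DNA-blocked outside the site) at 0.1 nM was incubated with 1 nM active mouse MILI or MIWI piRISC (synthetic 5'-monophosphorylated piRNA guide) with or without 500 nM mouse GTSF1 at 33 °C for 1 min to 16 h. Uncleaved targets were sequenced and normalised to non-target controls, and the pooled three trials were fitted to a burst-and-steady-state model to give the pre-steady-state cleavage rate (min^-1; k3 is constrained to at most 1e-4). Sequence is the target site only; target names encode pairing extent (gX:gY) and contiguous / 1-mismatch / 2-mismatch / bulge geometry. Fits with R² ≤ 0 are excluded.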

Q: For UCGACCUACAGCUACCAUAGUAUUUAGAAA, which “pre-steady-state target cleavage rate” value is on record?
A: 0.11 ± 0.031

Q: With AGGACCUACAGCUUGCAUAGCAUUUAGUUA as the sequence, how does the “pre-steady-state target cleavage rate” value read?
A: 0.471 ± 0.033

Q: For UCCUGCUAGUCCUUGCAUAGUAUUUAGUAA, which “pre-steady-state target cleavage rate” value is on record?
A: 0.08 ± 0.016

Q: How did the “pre-steady-state target cleavage rate” value turn out when UCCUGGUACUAGCUUGCAUAGUAUUUAGUUA was run?
A: 0.15 ± 0.031

Q: How did the “pre-steady-state target cleavage rate” value turn out when UCCUGCUACAGGAAGCAUAGUAUUUACAAA was run?
A: 0.0144 ± 0.0057

Q: Which “pre-steady-state target cleavage rate” value does the source give for UCCUGCUAUAGCUUGCAUAGUAUUUAGUUA here?
A: 0.631 ± 0.035

Q: With UCCUGGAUGAGGCUUGCAUAGUAUUUAGUUA as the sequence, how does the “pre-steady-state target cleavage rate” value read?
A: 0.503 ± 0.039

Q: For UCGACCUACAGCUAGCAUAGUAUAUAGUUA, which “pre-steady-state target cleavage rate” value is on record?
A: 0.804 ± 0.055

Q: With UCGACCUACAGCUUGCAAUCUAUUUAGUAA as the sequence, how does the “pre-steady-state target cleavage rate” value read?
A: 0.192 ± 0.031

Q: With UCCUGCUACAGCUUGCAUAGCAUUUAGUUA as the sequence, how does the “pre-steady-state target cleavage rate” value read?
A: 0.319 ± 0.027

Q: UGGACCUAGAGCUUGCAUUGUAUUUAGUUA was tested. Which “pre-steady-state target cleavage rate” value did it give?
A: 0.848 ± 0.05

Q: UCGUCCUACAGCUUGCAUAGUAUUUACUUA was tested. Which “pre-steady-state target cleavage rate” value did it give?
A: 0.294 ± 0.022

Q: With UCCACCUACAGCUUGCAUUCUAUUUACAAA as the sequence, how does the “pre-steady-state target cleavage rate” value read?
A: 0.034 ± 0.013

Q: UGGAGCUACACCUUGCAUAGUAUUUAGUUA was tested. Which “pre-steady-state target cleavage rate” value did it give?
A: 1.12 ± 0.051

Q: UGGACCUACAGCUUGCAUAGUAUUUAGUGA was tested. Which “pre-steady-state target cleavage rate” value did it give?
A: 1.12 ± 0.064

Q: How did the “pre-steady-state target cleavage rate” value turn out when UCCUGGAACAGCAUGCAUUGUAUUUAGUUA was run?
A: 0.648 ± 0.033

Q: UCCUGGAACAGCUUGCUUAGUUUUUAGUUA was tested. Which “pre-steady-state target cleavage rate” value did it give?
A: 0.176 ± 0.016

Q: With UCCUGCUACAGCUUGCAUAGUAUUUAGUAUA as the sequence, how does the “pre-steady-state target cleavage rate” value read?
A: 0.522 ± 0.033

Q: For UCCUCCUACUCGUUGCAUAGUAUUUUCAAA, which “pre-steady-state target cleavage rate” value is on record?
A: 0.136 ± 0.02

Q: UCCUGGAUGUCCUUGCAUAGUAUUUAGUGA was tested. Which “pre-steady-state target cleavage rate” value did it give?
A: 0.11 ± 0.018

Q: For UGGACCUUGAGCUUGCAUAGUAUUUUCAAA, which “pre-steady-state target cleavage rate” value is on record?
A: 0.0876 ± 0.019

Q: Which “pre-steady-state target cleavage rate” value does the source give for UCCUGCAACAGCUUGCAUAGUAUUUAGAUA here?
A: 0.398 ± 0.04

Q: Which “pre-steady-state target cleavage rate” value does the source give for UCCUGGAACAGCUUGCAUAGUAUUAAGUAA here?
A: 0.207 ± 0.034

same assay, conditions: guide: L1MC piRNA 5'p-UAACUAAAUACUAUGCAAGCUGUAGGUCCU; auxiliary factor: none (no GTSF1)

Q: How did the “pre-steady-state target cleavage rate” value turn out when AGGACCUACAGCUUGCAUAGCAUUUAGUUA was run?
A: 0.0409 ± 0.0075

Q: UCCUGCUAGUCCUUGCAUAGUAUUUAGUAA was tested. Which “pre-steady-state target cleavage rate” value did it give?
A: 0.00502 ± 0.0015

Q: How did the “pre-steady-state target cleavage rate” value turn out when UCCUGGUACUAGCUUGCAUAGUAUUUAGUUA was run?
A: 0.0352 ± 0.008

Q: For UCCUGCUAUAGCUUGCAUAGUAUUUAGUUA, which “pre-steady-state target cleavage rate” value is on record?
A: 0.0386 ± 0.007

Q: How did the “pre-steady-state target cleavage rate” value turn out when UCCUGGAUGAGGCUUGCAUAGUAUUUAGUUA was run?
A: 0.0399 ± 0.0095

Q: How did the “pre-steady-state target cleavage rate” value turn out when UCGACCUACAGCUAGCAUAGUAUAUAGUUA was run?
A: 0.00897 ± 0.002

Q: For UCCUGCUACAGCUUGCAUAGCAUUUAGUUA, which “pre-steady-state target cleavage rate” value is on record?
A: 0.0302 ± 0.0054

Q: How did the “pre-steady-state target cleavage rate” value turn out when UGGACCUAGAGCUUGCAUUGUAUUUAGUUA was run?
A: 0.0259 ± 0.0071

Q: Which “pre-steady-state target cleavage rate” value does the source give for UCGUCCUACAGCUUGCAUAGUAUUUACUUA here?
A: 0.0351 ± 0.0049

Q: Which “pre-steady-state target cleavage rate” value does the source give for UGGAGCUACACCUUGCAUAGUAUUUAGUUA here?
A: 0.0597 ± 0.0097

Q: Which “pre-steady-state target cleavage rate” value does the source give for UGGACCUACAGCUUGCAUAGUAUUUAGUGA here?
A: 0.0575 ± 0.011

Q: With UCCUGGAACAGCAUGCAUUGUAUUUAGUUA as the sequence, how does the “pre-steady-state target cleavage rate” value read?
A: 0.0146 ± 0.0042

Q: With UCCUGGAACAGCUUGCUUAGUUUUUAGUUA as the sequence, how does the “pre-steady-state target cleavage rate” value read?
A: 0.0251 ± 0.0074

Q: Which “pre-steady-state target cleavage rate” value does the source give for UCCUGCUACAGCUUGCAUAGUAUUUAGUAUA here?
A: 0.0059 ± 0.0033

Q: For UCCUGGAUGUCCUUGCAUAGUAUUUAGUGA, which “pre-steady-state target cleavage rate” value is on record?
A: 0.00937 ± 0.0023

Q: For UGGACCUUGAGCUUGCAUAGUAUUUUCAAA, which “pre-steady-state target cleavage rate” value is on record?
A: 0.00307 ± 0.0023

Q: Which “pre-steady-state target cleavage rate” value does the source give for UCCUGCAACAGCUUGCAUAGUAUUUAGAUA here?
A: 0.0238 ± 0.0089

Q: For UCCUGGAACAGCUUGCAUAGUAUUAAGUAA, which “pre-steady-state target cleavage rate” value is on record?
A: 0.00983 ± 0.0037

Reference: the supplement of paper PMC10338343
